These are literature values, as cited in PubChem BioAssay AID1259409 (Chemical Carcinogenesis Research Information System (CCRIS), 2018).

“Also recorded” adds a separate entry of the source. The source holds more than one record for some entries. The list is limited to them. An entry can have further records. Results that share an entry repeat one measurement in other runs, samples, wells, individuals or studies. Marks in square brackets tell the records apart. Letters hold for one entry only.

The subject of the data set is rodent chemically induced tumor inhibition, incidence and multiplicity. The data set can be described thus: CCRIS tumor inhibitor studies. The note with it: Dose [Inhibitor]: 0, Route [Inhibitor]: ORAL, Species: RAT, Strain/Sex: F344/MALE, Promoter: NONE USED. An excerpt: The CCRIS database contains chemical records with carcinogenicity, mutagenicity, tumor promotion, and tumor inhibition test results. It was developed by the National Cancer Institute (NCI). Data are derived from studies cited in primary journals, current awareness tools, NCI reports, and other sources. Test results have been reviewed by experts in carcinogenesis and mutagenesis.
CCRIS provides historical information from the years 1985 - 2011. It is no longer updated.
This is an archive assay for CCRIS tumor inhibitor studies.

Take `O=C(O)c1ccc(O)c(O)c1`: the “tumour outcome (control, treated, inhibition, significance)” value is 11/19 (58%), 1/21 (5%), 91%, p<0.001 [study A] and 58%, 5%, 91%, p<0.05 [study B] (Carcinogen: 4-NITROQUINOLINE-1-OXIDE, 56-57-5, 500 PPM IN DIET FOR 22 WK BEGINNING 1 WK POST CARCINOGEN TREATMENT (STUDY DURATION: 32 WK), Target Tissue: Type of Lesion: TONGUE: CARCINOMA, Dose [Carcinogen]: 20 PPM IN DRINKING WATER FOR 8 WK); 11/19 (58%), 0/19 (0%), 100%, p<0.001 [study A] and 58%, 0%, 100%, p<0.05 [study B] (Carcinogen: 4-NITROQUINOLINE-1-OXIDE, 56-57-5, 1000 PPM IN DIET FOR 10 WK BEGINNING 1 WK PRIOR TO CARCINOGEN TREATMENT (STUDY DURATION: 32 WK), Target Tissue: Type of Lesion: TONGUE: CARCINOMA, Dose [Carcinogen]: 20 PPM IN DRINKING WATER FOR 8 WK); 11/19 (58%), 2/19 (11%), 81%, p<0.01 [study A] and 58%, 11%, 81%, p<0.05 [study B] (Carcinogen: 4-NITROQUINOLINE-1-OXIDE, 56-57-5, 1000 PPM IN DIET FOR 22 WK BEGINNING 1 WK POST CARCINOGEN TREATMENT (STUDY DURATION: 32 WK), Target Tissue: Type of Lesion: TONGUE: CARCINOMA, Dose [Carcinogen]: 20 PPM IN DRINKING WATER FOR 8 WK); 11/19 (58%), 0/21 (0%), 100%, p<0.001 [study A] and 58%, 0%, 100%, p<0.05 [study B] (Carcinogen: 4-NITROQUINOLINE-1-OXIDE, 56-57-5, 2000 PPM IN DIET FOR 10 WK BEGINNING 1 WK PRIOR TO CARCINOGEN TREATMENT (STUDY DURATION: 32 WK), Target Tissue: Type of Lesion: TONGUE: CARCINOMA, Dose [Carcinogen]: 20 PPM IN DRINKING WATER FOR 8 WK); 11/19 (58%), 0/20 (0%), 100%, p<0.001 [study A] and 58%, 0%, 100%, p<0.05 [study B] (Carcinogen: 4-NITROQUINOLINE-1-OXIDE, 56-57-5, 2000 PPM IN DIET FOR 22 WK BEGINNING 1 WK POST CARCINOGEN TREATMENT (STUDY DURATION: 32 WK), Target Tissue: Type of Lesion: TONGUE: CARCINOMA, Dose [Carcinogen]: 20 PPM IN DRINKING WATER FOR 8 WK); 59%, 32%, 46%, not significant [study A]; also recorded: 13/22 (59%), 7/22 (32%), 46%, not significant [study B] (Carcinogen: N-METHYL-N-NITROSOUREA, 684-93-5, 500 PPM IN DIET FOR 14 WK BEGINNING 1 WK PRIOR TO CARCINOGEN TREATMENT (STUDY DURATION: 36 WK), Target Tissue: Type of Lesion: GLANDULAR STOMACH: ADENOCARCINOMA, Dose [Carcinogen]: 400 PPM IN DRINKING WATER FOR 12 WK). Further, the “tumour outcome (control, treated, inhibition, significance)” value runs as follows: (Carcinogen: N-METHYL-N-NITROSOUREA, 684-93-5, 500 PPM IN DIET FOR 22 WK BEGINNING 1 WK POST CARCINOGEN TREATMENT (STUDY DURATION: 36 WK), Target Tissue: Type of Lesion: GLANDULAR STOMACH: ADENOCARCINOMA, Dose [Carcinogen]: 400 PPM IN DRINKING WATER FOR 12 WK) 59%, 50%, 15%, not significant [study A]; also recorded: 13/22 (59%), 11/22 (50%), 15%, not significant [study B]; (Carcinogen: N-METHYL-N-NITROSOUREA, 684-93-5, 1000 PPM IN DIET FOR 22 WK BEGINNING 1 WK POST CARCINOGEN TREATMENT (STUDY DURATION: 36 WK), Target Tissue: Type of Lesion: GLANDULAR STOMACH: ADENOCARCINOMA, Dose [Carcinogen]: 400 PPM IN DRINKING WATER FOR 12 WK) 59%, 23%, 61%, p<0.05 [study A] and 13/22 (59%), 5/22 (23%), 61%, p<0.05 [study B].
